Assay results reported in article PMC4336329 (PLoS ONE, 2015).
Hit rate of the full screen: of about 310,000 compounds, about 14,000 (4.5%) showed an effect of 50% or more. The effect is printed as a negative number. The list shows a part of the results.

Target: human ether-à-go-go-related gene (hERG) potassium channel (human, UniProt Q12809)
Assay: primary screen, population patch clamp on CHO cells stably expressing hERG
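Note: peak tail current of the secondary pulse compared with the same well before compound.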

Chain of human ether-à-go-go-related gene (hERG) potassium channel (Q12809 whole entry, looked up): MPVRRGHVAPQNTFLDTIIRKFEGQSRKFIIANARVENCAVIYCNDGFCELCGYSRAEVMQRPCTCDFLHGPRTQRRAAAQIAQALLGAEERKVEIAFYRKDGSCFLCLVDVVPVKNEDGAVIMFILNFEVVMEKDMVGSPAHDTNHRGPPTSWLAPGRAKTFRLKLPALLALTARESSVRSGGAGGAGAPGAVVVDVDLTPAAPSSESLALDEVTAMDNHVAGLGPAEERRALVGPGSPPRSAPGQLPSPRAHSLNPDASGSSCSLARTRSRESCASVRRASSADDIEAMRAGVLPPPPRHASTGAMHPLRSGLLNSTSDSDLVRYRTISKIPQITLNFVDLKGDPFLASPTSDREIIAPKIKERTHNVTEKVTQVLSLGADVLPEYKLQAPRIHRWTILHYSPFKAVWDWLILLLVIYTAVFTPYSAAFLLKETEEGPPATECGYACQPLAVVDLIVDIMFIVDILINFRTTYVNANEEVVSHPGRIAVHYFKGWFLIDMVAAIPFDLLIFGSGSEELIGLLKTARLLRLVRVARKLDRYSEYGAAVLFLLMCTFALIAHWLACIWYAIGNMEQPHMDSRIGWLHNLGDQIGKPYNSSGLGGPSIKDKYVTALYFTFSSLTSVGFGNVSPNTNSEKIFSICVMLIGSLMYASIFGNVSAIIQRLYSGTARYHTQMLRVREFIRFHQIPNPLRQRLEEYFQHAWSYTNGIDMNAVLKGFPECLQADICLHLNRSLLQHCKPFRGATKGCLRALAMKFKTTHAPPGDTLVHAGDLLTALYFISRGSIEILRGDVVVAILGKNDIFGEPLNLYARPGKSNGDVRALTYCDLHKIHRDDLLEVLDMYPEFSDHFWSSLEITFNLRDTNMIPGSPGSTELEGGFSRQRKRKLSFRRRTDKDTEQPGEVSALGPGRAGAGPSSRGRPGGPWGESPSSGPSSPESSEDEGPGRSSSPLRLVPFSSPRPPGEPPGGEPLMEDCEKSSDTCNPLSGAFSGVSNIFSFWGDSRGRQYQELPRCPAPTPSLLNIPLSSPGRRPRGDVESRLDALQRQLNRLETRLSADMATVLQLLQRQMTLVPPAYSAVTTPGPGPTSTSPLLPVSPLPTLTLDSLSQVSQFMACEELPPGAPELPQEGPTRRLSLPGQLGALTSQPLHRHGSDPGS

First: O=C(CN1CC=C(c2ccccc2)CC1)Nc1c(Cl)cccc1Cl
Second: CN(CC(=O)Nc1ccccc1Cl)C(=O)CN1C(=O)NC(c2ccccc2)(c2ccccc2)C1=O
The “hERG current change (%, negative = inhibition) at 10uM” value of the first is higher: 4.21% for the first, -66.8% for the second.

First: O=C(NCC1CCCO1)C(=O)N/N=C/c1cccc(Cl)c1 (stereo not shown)
Second: O=C(CNC1CCCCC1)Nc1ccc(Cl)cc1
The “hERG current change (%, negative = inhibition) at 10uM” value of the first is higher: 12.1% for the first, -5.47% for the second.

Compared with `COc1ncnc(-c2ccccc2)c1-c1ccccc1`, `O=c1ccc2cc3c(-c4ccccc4)coc3cc2o1` is higher in “hERG current change (%, negative = inhibition) at 10uM” value: 1.86% for the first, 7.58% for the second.

Compared with `O=C1C2C3C=CC(C4CC34)C2C(=O)N1/N=C/c1c[nH]c2ccccc12` (stereo not shown), `O=c1c2ccccc2nc2ccc(N3CCOCC3)nn12` is lower in “hERG current change (%, negative = inhibition) at 10uM” value: 5.34% for the first, 2.35% for the second.

Compared with `Cc1cc(F)ccc1S(=O)(=O)Nc1ccccc1C(=O)N1CCCC1`, `O=C(COc1ccc(NS(=O)(=O)c2ccc(F)cc2)cc1)N1CCOCC1` is higher in “hERG current change (%, negative = inhibition) at 10uM” value: 1.27% for the first, 6.42% for the second.

Going from `Cc1ccc(Nc2nnc(SCC(=O)Nc3cc(C(=O)O)ccc3C)s2)c(C)c1` to `COc1ccc(C)cc1NC(=O)C(Sc1nnc(-c2cccs2)o1)c1ccccc1` (stereo not shown), the “hERG current change (%, negative = inhibition) at 10uM” value falls from 8.1% to -20.4%.

First: Cc1ccc(OCC(=O)NCCN2CCN(C(=O)COc3ccc(C)cc3)CC2)cc1
Second: COc1ccc(-n2c(Cc3cccn3C)nnc2SCC(=O)NC2CCCCC2)cc1
The “hERG current change (%, negative = inhibition) at 10uM” value of the first is lower: -65.9% for the first, -15.1% for the second.

Going from `C=CCN1C(=O)C(Cc2ccc(Br)cc2)S/C1=N\N=C\c1ccco1` (stereo not shown) to `O=C(CSc1nc2c(c(=O)n1-c1ccc(Br)cc1)SCC2)NCc1ccco1`, the “hERG current change (%, negative = inhibition) at 10uM” value falls from -1.85% to -17.8%.

Compared with `Cc1ccccc1-c1nc(S(=O)(=O)c2ccc(Br)cc2)c(NCc2cccnc2)o1`, `COc1ccc(S(=O)(=O)Nc2ccccn2)cc1OC` is higher in “hERG current change (%, negative = inhibition) at 10uM” value: -1.91% for the first, 6.99% for the second.

First: O=[N+]([O-])c1ccc(F)c(N=Cc2ccc(Br)s2)c1
Second: O=[N+]([O-])c1cc(/C=N\O)ccc1Oc1ccc(F)cc1
The “hERG current change (%, negative = inhibition) at 10uM” value of the first is higher: 8.36% for the first, -72.1% for the second.

Compared with `CCN(CC)CCNC(=O)c1ccccc1N`, `CCC(=O)Nc1cccc(SC)c1` is higher in “hERG current change (%, negative = inhibition) at 10uM” value: -5.76% for the first, 28.9% for the second.

Compared with `Cc1cc(C(=O)N2CCC(CO)(Cc3cccc(C(F)(F)F)c3)CC2)n[nH]1`, `Cc1nc(C)n(CC(C)C(=O)N2CCN(S(=O)(=O)c3ccccc3)CC2)n1` (stereo not shown) is higher in “hERG current change (%, negative = inhibition) at 10uM” value: -49.4% for the first, 20.3% for the second.

First: CCN1CCN(CCCN(Cc2ccco2)C(=S)Nc2ccccc2Cl)CC1
Second: CCOc1cc(Cl)c(CNCCCN2CCOCC2)cc1OC
The “hERG current change (%, negative = inhibition) at 10uM” value of the first is lower: -53.5% for the first, 18.6% for the second.

Going from `CC(=O)OC[C@H]1O[C@@H](n2ncc(=O)[nH]c2=O)[C@H](OC(C)=O)[C@@H]1OC(C)=O` to `COc1ccc(-c2csc(NC(=O)C3CSC4(C)CCC(=O)N34)n2)c(OC)c1` (stereo not shown), the “hERG current change (%, negative = inhibition) at 10uM” value falls from 19.6% to -2.85%.

Compared with `COc1cc(C2C(C#N)=C(N)OC3=C2C(=O)CCC3)cc2c1OCO2` (stereo not shown), `COC(=O)CCCC1=CC2=C(c3ccccc3)C(=O)C(C)(OC(=O)C3CCCC3)C(=O)C2=CN1Cc1ccc2c(c1)OCO2` (stereo not shown) is higher in “hERG current change (%, negative = inhibition) at 10uM” value: -6.46% for the first, -3.01% for the second.

Going from `CC/C(=N\N1CCCCCC1)c1c(O)n(-c2ccc(C)cc2)c(=O)[nH]c1=O` to `Cc1ccc(N2C(=O)CC(Sc3nc(C)cc(C)n3)C2=O)cc1` (stereo not shown), the “hERG current change (%, negative = inhibition) at 10uM” value rises from -19% to 12%.

First: O=C(NCc1ccncc1)c1cc(F)c(F)cc1Cl
Second: CN(CC(=O)NNC(=O)CNC(=O)c1ccccc1F)S(=O)(=O)c1ccc(Cl)cc1
The “hERG current change (%, negative = inhibition) at 10uM” value of the first is higher: 14.2% for the first, -5.72% for the second.

First: Cc1nc2nc(CCNS(=O)(=O)c3ccc(Cl)cc3)cn2nc1C
Second: Cc1ccc(S(=O)(=O)Nc2ccc3c(c2)OCCO3)cc1C
The “hERG current change (%, negative = inhibition) at 10uM” value of the first is higher: 11.6% for the first, 8.12% for the second.

First: Cc1cc(C)n(CC(C)C(=O)O)n1 (stereo not shown)
Second: COc1ccc2oc(=O)c(-c3nc(C)cs3)cc2c1
The “hERG current change (%, negative = inhibition) at 10uM” value of the first is higher: 14.2% for the first, 2.63% for the second.

Going from `Cc1cccc(-n2nc3c(c2NC(=O)c2ccc4c(c2)OCO4)CS(=O)(=O)C3)c1C` to `Cc1cc(=O)n2nc(N3CCCC(C(=O)NCc4ccccc4Cl)C3)sc2n1` (stereo not shown), the “hERG current change (%, negative = inhibition) at 10uM” value falls from 10.4% to -18.7%.

Going from `CCCCc1cc(=O)oc2c(C)c(OCc3nn[nH]n3)ccc12` to `COC(=O)c1ccc(CNC(=O)C2CCC(=O)N(Cc3ccccn3)C2)cc1` (stereo not shown), the “hERG current change (%, negative = inhibition) at 10uM” value rises from -2.31% to 13.8%.

`OCCC1CN(Cc2cnc(-c3ccc(Cl)cc3)nc2)CCN1C1CCCC1` (stereo not shown) was tested, and the “hERG current change (%, negative = inhibition) at 10uM” value was -73.5%.
